The other results are listed elsewhere or left out. For some of these results: At the low end of the ranking the order means little. For some of these results: The protein was read in a cell extract, so binding may be indirect.
Key:
Conditions in all cases: 20 mM HEPES pH 7.9, 100 mM NaCl, 1 mM DTT, 0.2 mg/mL BSA, 0.02% Triton X-100, 2% milk, 0.4 mg/mL salmon testes DNA; 1 h; temperature not stated; high values mean tight binding; double strand, one strand shown; sequences stand for … in GCCTAGCAC…GTGCTAGGTCTTGATTCGCTTGACGCTGCTG
PU.1 (IVT) = PU.1 (IVT) (UniProt P17947); assay: protein-binding microarray (PBM)
[1] = target: PU.1 (endogenous, THP-1 nuclear extract) (UniProt P17947); assay: nuclear extract protein-binding microarray (nextPBM)
[2] = target: T1, FLI1 (endogenous, THP-1 nuclear extract) (UniProt Q01543); assay: as above
T1 sequence: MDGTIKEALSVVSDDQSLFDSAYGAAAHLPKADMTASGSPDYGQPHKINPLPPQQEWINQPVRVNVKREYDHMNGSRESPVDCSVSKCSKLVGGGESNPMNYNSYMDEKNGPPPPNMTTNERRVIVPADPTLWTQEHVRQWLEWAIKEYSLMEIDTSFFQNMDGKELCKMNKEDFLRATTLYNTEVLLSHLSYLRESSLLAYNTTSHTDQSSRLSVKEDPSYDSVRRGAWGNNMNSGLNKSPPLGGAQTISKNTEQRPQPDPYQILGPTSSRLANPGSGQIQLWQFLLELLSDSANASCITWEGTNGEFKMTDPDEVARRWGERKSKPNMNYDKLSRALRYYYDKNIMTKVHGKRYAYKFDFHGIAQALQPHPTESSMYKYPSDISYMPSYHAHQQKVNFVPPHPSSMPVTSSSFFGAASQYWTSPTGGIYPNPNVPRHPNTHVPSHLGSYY

[3] = test system: PU.1 (endogenous, THP-1 nuclear extract) + IRF8 (endogenous, THP-1 nuclear extract); assay: as above

Sequence	binding signal (PU.1 (IVT))	binding signal [1]	binding signal [2]	binding signal [3]
AAATATCTCTTGCAATCAGA	-0.57 z-score	-0.136 z-score	-0.426 z-score	-0.151 z-score
ATGTAGCTATTAGACCTTGC	-0.499 z-score	-0.413 z-score	0.0856 z-score	-0.171 z-score
ATTCTCCAGCCTCAGCCTCC	-0.718 z-score	-0.191 z-score	-0.132 z-score	-0.51 z-score
TGGCTCCTTGCAGAGAAACC	-0.94 z-score	-0.112 z-score	-0.126 z-score	-0.539 z-score
ACTGTAGCCCAAGAGTATCT	-0.747 z-score	-0.299 z-score	-0.753 z-score	0.474 z-score
TGAAAGAGGAAGTGAAACCA	7.95 z-score	7.57 z-score	4.79 z-score	83.6 z-score
TGCCTTTCATTCTGGAATCA	-0.254 z-score	-0.137 z-score	0.387 z-score	-0.801 z-score
AAATGAACTTCAAAAAAGGA	0.169 z-score	-0.676 z-score	-0.307 z-score	-0.801 z-score
TTTCAGTCTTCAATCCCTGA	-0.1 z-score	-0.173 z-score	-0.561 z-score	3.75 z-score
AGACATGAGCTACCATGTCC	-0.326 z-score	-0.19 z-score	-0.269 z-score	1.07 z-score
TTTTTAACAAGAAGTTCTTG	0.636 z-score	0.588 z-score	-0.136 z-score	-2.08 z-score
GTTCCTGCCTAAACAGATTA	0.42 z-score	0.26 z-score	0.271 z-score	-0.572 z-score
CGGAATACAGAAGAAAGGAC	0.336 z-score	0.491 z-score	1.86 z-score	-0.78 z-score
CCAGGAGTCCTTGACCAAGT	-0.303 z-score	-0.371 z-score	-0.692 z-score	0.719 z-score
AAATGGAATCATGCAGTACT	-0.0138 z-score	-0.254 z-score	0.0699 z-score	-0.713 z-score
GCCATGCCCATGTCTGGACT	0.00744 z-score	-0.174 z-score	-0.388 z-score	0.512 z-score
AGGTTCAGCCTGGTTATTTT	0.202 z-score	-0.484 z-score	-0.357 z-score	1.33 z-score
TCCAGATGTTCTTCACCCAT	-0.52 z-score	-0.136 z-score	-0.257 z-score	0.393 z-score
AATTAAAAATGAGCAAAAAA	0.259 z-score	-0.563 z-score	-0.243 z-score	-0.365 z-score
GTTGCTTGAAAAGAGAAGTG	3.64 z-score	3.74 z-score	1.22 z-score	-0.271 z-score
GCACATGATTCTGGAAGCTG	-0.133 z-score	0.48 z-score	0.925 z-score	-0.621 z-score
TCAGCCATAATTATGACCTA	-0.152 z-score	-0.232 z-score	-0.856 z-score	-0.809 z-score
TGTATTTTTTACGGGGTTGA	-0.0847 z-score	-0.193 z-score	-0.513 z-score	-1.81 z-score
GAAATTACTGCGTGAAAGCA	0.0899 z-score	-0.761 z-score	-0.415 z-score	-1.03 z-score
TGCAGGGTGGGAAGATGGCT	0.0611 z-score	-0.0327 z-score	0.225 z-score	-0.349 z-score

Sequence	binding signal (PU.1 (IVT))	binding signal [1]	binding signal [2]	binding signal [3]
GGGGTGCCATCAAAGTATCT	0.139 z-score	-0.223 z-score	-0.314 z-score	0.901 z-score
CTTAATTTAATTGAGCAGGG	-0.64 z-score	-0.505 z-score	-0.294 z-score	-0.37 z-score
CCCATCACATATCTGTATCC	-0.082 z-score	-0.343 z-score	1.03 z-score	-0.236 z-score
GATGGCCTAGATCGCTCGGG	-0.856 z-score	-0.372 z-score	-1.61 z-score	0.406 z-score
TTCCCCGCAGGCCGGGCCGA	2.37 z-score	2.46 z-score	1.52 z-score	1.47 z-score
CATCTTCTCAAATGTTGCAA	0.442 z-score	-0.271 z-score	-0.553 z-score	-1.53 z-score
CCTTTGTGGGAAGTCCCAGG	1.49 z-score	1.62 z-score	0.948 z-score	-1.79 z-score
TCCCAGATCAAGGTACTGGT	-0.476 z-score	-0.4 z-score	-0.267 z-score	1.14 z-score
TATTTTTTGTGGTTTCCAAA	0.0777 z-score	-0.636 z-score	-0.104 z-score	-0.236 z-score
TTGCAGAAGCCGCGAGTGAG	-0.0514 z-score	-0.012 z-score	-0.882 z-score	0.0111 z-score
AGAAGAACTGCGTGAAAGAA	-0.0383 z-score	0.124 z-score	-0.495 z-score	-0.0847 z-score
CTAAGTTCAAATGTTAATTT	-0.511 z-score	-0.433 z-score	-0.706 z-score	-0.858 z-score
AGAGAGACTGCGTGAAAGTA	0.063 z-score	-0.345 z-score	-0.465 z-score	-0.0536 z-score
GCATTCCGAGTTACTGGGAC	-0.648 z-score	-0.0833 z-score	-0.399 z-score	-0.59 z-score
GAGAGGACTGCGTGAAACTG	-0.208 z-score	-0.498 z-score	-0.0949 z-score	2.57 z-score
AGAGCCTGACACCGCTGCTC	-0.563 z-score	-0.0817 z-score	-0.0559 z-score	-0.0878 z-score
TGGCCGTGATAAGGCACCCC	-0.92 z-score	-0.339 z-score	-0.328 z-score	0.861 z-score
TGCTTGGCTCTCATTCGCCT	-0.294 z-score	-0.315 z-score	-0.816 z-score	-0.658 z-score
CCTGGTTTAATATCTGCCTG	-0.312 z-score	-0.278 z-score	-0.0117 z-score	-0.753 z-score
GGCCCTGGGTGGCAGGTTTG	-0.468 z-score	-0.233 z-score	0.03 z-score	0.544 z-score
CTGACCAGGGTGGAATAACC	0.114 z-score	-0.303 z-score	-0.367 z-score	0.167 z-score
ACCTCTGCTGCCTGAAACTG	-0.299 z-score	-0.403 z-score	-0.105 z-score	2 z-score
TTGCACAAGGAGGAAGTGAG	6.01 z-score	6.5 z-score	3.51 z-score	0.447 z-score
GGGTGCTTATGACAGCAGGA	-0.192 z-score	-0.255 z-score	-0.903 z-score	-0.733 z-score

— PMC6451091
